Experimental data as given in a collection of fitness landscapes (doi:10.1016/j.celrep.2020.107928).
The full ranking holds about 81,000 sequences; the median of “one-hybrid fitness for binding NBS DNA” is about -0.1, and the highest 2% start at about 0.36. The list shows a part of the results.

B1: Caulobacter ParB omega fusion; a variant is named by its letters at X, in order, B8GW30 (parent)
chain: MESVVVGEPGMSEGRRGLGRGLSALLGEVDAAPAQAPGEQLGGSREAPIEILQRNPDQPRRTFREEDLEDLSNSIREKGVLQPILVRPSPDTAGEYQIVAGERAWRAAQRAGLKTVPIMVRELDDLAVLEIGIIENVQRADLNVLEEALSYKVLMEKFERTQENIAQTIGKSXSHVANXMRLLXLPDEVQSYLVSGELTAXHARAIAAAADPVALAKQIIEGGLSVRETEALARKAPNLSAGKSKGGRPPRVKDTDTQALESDLSSVLGLDVSIDHRGSTGTLTITYATLEQLDDLCNRLTRGI

Variants of: B1
Assay: one-hybrid fitness for binding NBS DNA (the Noc-binding site; scaled: cognate 1, non-cognate 0); higher = stronger binding
Details: with NBS DNA site
In short: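 Pre- and post-selection plasmids were Illumina-sequenced, three replicate libraries were pooled, and any variant with under 10 reads was removed. The libraries were Caulobacter ParB with four specificity codons randomised, selected in E. coli USO through a HIS3 reporter whose site is 19 bp from the promoter. Cells grew 48 hours at 37°C on M9 without histidine, with 0.1 mM IPTG and 5 mM 3-AT. Fitness is the log change in variant-to-wild-type read ratio, rescaled against cognate and non-cognate.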

one-hybrid fitness for binding NBS DNA, 0.214:
QCMC

one-hybrid fitness for binding NBS DNA, 0.371:
QQET

one-hybrid fitness for binding NBS DNA, 0.229:
RRVV

one-hybrid fitness for binding NBS DNA, 0.335:
QKRG

one-hybrid fitness for binding NBS DNA, 0.59:
QCKY

one-hybrid fitness for binding NBS DNA, 0.385:
FGAR

one-hybrid fitness for binding NBS DNA, ≤ 0.2:
PTHR
CTRW
GRET
NPNY
LALL
VSWE
EQRL
WIER
GHEG
PYTE
LKTS
QYQI
VLRV
ASHF
CAVI
GITV
IAYC
QIHV
KAFR
VGAE
SDLT
PLPK
PMPQ
HVEG
VCTS
SDTD
PPDA
LDMD
LRLV
SHRH
PAIY
SCEV
IWEL
TVHQ
SPRC
SLMS
QLVA
RNMN
MRHC
EVAT
LWSC
IRNG
DSDY
HELR
DPVM
AAFC
CINT
EPNV
PPHV
QYYH
CEDT
RTCY
TNEL
MPST
HSCS
VKHC
AFRI
PQRL
DNHY
YRKP
PMDR
GGME
PYNI
DTWS
KNRR
STCV
GTQQ
DVWS
AYHG
IKRA
ETCF
NMHL
NRAL
RMNW
LKNQ
PFMS
WVMN
FGVM
DYAG
WRAR
STLF
GCNY
NRFS
DHQD
TEWY
QGQS
IPTG
GPYM
VLTY
ANDI
LWYA
IWMT
LDTC
WLYC
NIHN
YIKG
RAME
MECT
RLYF
GSNW
AHDW
LEAK
QKWY
QWSM
GLVL
DAMG
TNTT
QFRE
DPVL
ETYT
LPTC
LTGF
QKMF
EYKG
VLYY
NCAE
CPDR
YASV
LQTM
QGRV
PGSI
PITS
WAAA
VTWH
PMPN
SFKV
VVTS
CIQI
HPTC
KRVV
NVCT
WKHS
GCTY
LYRW
PQGS
WRAG
NMAR
SCIA
ACVI
MNWM
DAAL
KVFR
ENKY
QMEE
DVQV
HQAG
DYMM
KADF
QSPW
WDEC
LPIT
GDKR
AQSW
SREF
QSNV
INLA
ALRY
NIHR
AVVL
APPR
RCMC
RTIF
PNCF
CTIM
PVTS
QNYE
IPFL
WFSG
KQTC
IMTL
ADRE
QMTC
DPKT
DTWP
VPRT
QQTF
SCET
IVLQ
TTCN
NFTT
IRLH
HSNW
LYFS
LMES
AQHE
TCAT
LTAL
YING
KCTW
SSKA
PDGW
SKMG
TDRM
HRSG
CVTM
EHRV
ISCP
PNAP
HADI
PERY
KQTV
EDMS
FGTS
KWCT
RTLK
RTRD
LCWC
QHML
IMLN
LKCT
MSSA
QPSA
DQRG
VSEI
NFRA
QVTA
QANH
QYSC
HNFT
HDGV
HGYA
HHGR
RNTY
SHAY
INYS
QIGA
CSSW
PKTI
LKFR
NPDL
QDAD
MTAK
REGE
ASEL
DMRS
LYVH
GVAH
EEGS
TDTS
SPVG
LRCR
GAHG
VGRN
EAGG
LQES
STKH
CWTS
NMTR
NVQM
ELNM
RPHS
RAKG
QNKV
GSHF
NLML
FSDG
VRSH
TTST
PNLT
SNND
NLRR
NAMP
AQLT
QAFF
DLYV
FPES
ISAP
PQDR
LKDG
AQRK
KAVG
MRQA
HIMT
RGQF
SQSP
NVDG
TFRM
DRPK
FSAM
RHWL
TPLE
NAFI
LQKT
VSFR
PSGM
QAFA
RKNE
GHTQ
ATGW
ILPY
RIEM
GTSI
MEQR
RFLQ
ESCY
LRDS
KLLR

one-hybrid fitness for binding NBS DNA, 0.28:
RSFR

one-hybrid fitness for binding NBS DNA, 0.247:
IKKR

one-hybrid fitness for binding NBS DNA, 0.234:
RTCH
